Measurements as given in PubChem BioAssay AID1963576 (National Center for Advancing Translational Sciences (NCATS), 2024).
The campaign covered roughly 46,000 compounds. About 60 (0.1%) were called active. Not shown: some 3% with an inconclusive outcome. Calls follow the shape of the dose curve; as a rule, active = well fitted inhibition curve with a large enough effect; inconclusive = small, poorly fitted or top-dose-only effect; inactive = no such curve, though single readings can be large or run the other way. The list shows a part of the results.

Test: Primary qHTS assay for Inhibitors of ovarian cancer metastasis using an organotypic tumor microenvironment (TME) model. Also: nearly all actives have a fitted effect of over 65% in size.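 As to activity change, negative = inhibition: plate controls were DMSO wells for no effect and tomatine positive control wells for full effect.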
Settings: SKOV3ip1-GFP adhesion/invasion on 3D omental model, fluorescence; series mostly up to 45.8 µM; activity change, negative = inhibition: at the top concentration
In short: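 Adhesion/invasion was scored as fixed GFP-labeled SKOV3ip1 cell counts (488/509 nm), normalized to DMSO and tomatine controls. Cancer cells in serum-free medium, with four compound doses (0.36-46 umol/L), sat 2 hr at RT then 16 hr at 37 C on a 48 hr fibroblast/mesothelial/ECM culture.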

outcome, inactive:
COCCNC(=O)c1ccc(-n2c(-c3ccccc3)cc3c2CCC(C)C3)cc1 (stereo unspecified), Cc1ccc(C(=O)NCc2ccc3c(c2)CCN3C(=O)c2ccc(C)cc2)cc1, COc1cc(NC(=O)c2nn(C)c3c2CS(=O)(=O)c2ccccc2-3)cc(OC)c1, COCCCNC(=O)c1c(-c2ccccc2)c(-c2ccccc2)nn(C)c1=O, COc1ccc(NC(=O)c2sc3nc4c(cc3c2N)CCCCCC4)c(OC)c1, COc1cc(N2C(=O)CSC23C(=O)N(Cc2cccc(F)c2)c2ccccc23)cc(OC)c1OC (stereo unspecified), Cc1ccc(-n2ncc(C(=O)NCc3ccccc3)c2C2CCN(C(=O)OC(C)(C)C)CC2)cc1, O=C(Nc1ccc(Cl)c(-c2nc3ccccc3o2)c1)c1ccc(-c2cccc([N+](=O)[O-])c2)o1, CCOc1ccc(NC(=O)Cn2cc(C(=O)c3ccc(OC)cc3)c(=O)c3cc4c(cc32)OCO4)cc1

Activity change, negative = inhibition, inactive:
CCn1nc(C)c(CCN(C)C(=O)Nc2ccc(C)c(Cl)c2)c1C 2.35%, Cc1cccc(Nc2nn3c(=O)c4cc5c(cc4nc3s2)OCO5)c1 -0.22%, O=C(Nc1ccc2nc3n(c(=O)c2c1)CCCCC3)C(=O)Nc1ccccc1F -1.44%, CCc1ccc(Cn2c(CNS(=O)(=O)c3ccc([N+](=O)[O-])cc3)nc3cccnc32)cc1 -5.85%, CCOC(=O)Cn1c(=O)n(CC2CCCO2)c2nc(-c3ccc(OCC)cc3)nc(C(N)=O)c21 (stereo unspecified) 1.16%, CCN(CC)CCNC(=O)CN1C(=O)COc2ccc(S(=O)(=O)N3CCOCC3)cc21 9.85%, Cc1cc(Nc2cccc(Cl)c2)nc2ccc(NC(=O)Cc3ccc(Cl)cc3)cc12 -6.36%, CCOc1ccccc1NC(=O)Cn1c(=O)n(Cc2ccccc2)c(=O)c2c1c1cc(C)ccc1n2C -15.9%, COc1ccc(CCNC(=O)c2ccc3c(c2)CCN3S(=O)(=O)c2ccccc2)cc1OC -4.03%, CCCCOC(=O)c1ccc(OC(=O)c2sc3ncn(Cc4ccccc4Cl)c(=O)c3c2C)cc1 -0.457%, COc1ccccc1OCc1nnc(-c2ccccc2)o1 -9.89%, COc1cccc(CNC(=O)Cc2csc3nc(-c4ccccc4)cn23)c1 -0.573%, CCOc1ccc(CNCCCSc2nnnn2C)cc1OC -7.38%, O=C(CSc1nc(=O)n(Cc2ccco2)c2c1CCC2)Nc1cccc(F)c1 0.11%, Cc1ccc(Cl)cc1Nc1sc(C(=O)c2ccc(F)cc2)c(N)c1S(C)(=O)=O -7.81%, N#Cc1c(O)c2c(-c3ccc(-c4ccccc4O)cc3)csc2[nH]c1=O -12.1%, COc1ccccc1N1CCN(C(c2ccc(Cl)cc2)c2nnc(-c3cccc(F)c3)o2)CC1 (stereo unspecified) 4.13%
